Assay results: PubChem BioAssay AID1159614 (National Center for Advancing Translational Sciences (NCATS), 2016)
Out of some 45,000 compounds screened, about 65 (0.1%) were called active. The call rests on the fitted dose curve; in most records, active means well fitted activation curve with a large enough effect; inconclusive means small, poorly fitted or top-dose-only effect; inactive means no such curve, though single readings can be large or run the other way. This is one part of the list.

Target: Galactocerebrosidase (Homo sapiens) (UniProt P54803)
UniProt P54803, sequence (P54803 whole entry, looked up): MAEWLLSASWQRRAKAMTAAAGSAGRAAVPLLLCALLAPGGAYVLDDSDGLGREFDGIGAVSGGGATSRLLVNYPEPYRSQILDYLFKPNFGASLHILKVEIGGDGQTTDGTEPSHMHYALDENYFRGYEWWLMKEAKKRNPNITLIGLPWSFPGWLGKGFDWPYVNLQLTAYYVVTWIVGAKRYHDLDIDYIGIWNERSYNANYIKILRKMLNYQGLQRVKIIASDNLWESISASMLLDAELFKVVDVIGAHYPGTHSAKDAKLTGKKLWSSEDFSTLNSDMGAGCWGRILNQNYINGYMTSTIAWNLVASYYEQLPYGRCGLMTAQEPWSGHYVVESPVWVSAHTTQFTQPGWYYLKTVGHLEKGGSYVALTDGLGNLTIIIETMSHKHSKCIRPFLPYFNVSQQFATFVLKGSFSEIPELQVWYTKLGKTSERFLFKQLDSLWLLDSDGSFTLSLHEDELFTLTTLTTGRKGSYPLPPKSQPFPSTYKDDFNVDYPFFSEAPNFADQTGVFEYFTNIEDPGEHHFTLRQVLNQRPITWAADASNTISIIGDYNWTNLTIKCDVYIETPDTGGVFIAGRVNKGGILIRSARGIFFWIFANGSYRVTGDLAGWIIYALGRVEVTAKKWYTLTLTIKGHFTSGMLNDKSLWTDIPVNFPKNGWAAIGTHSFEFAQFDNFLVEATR
Assay: A Novel Cell-Based Assay to Identify Small Molecules for B -Galactocerebrosidase; further: 0% is about no effect; nearly all actives have a fitted effect of over 65% in size
Conditions: 145M-Twi-hGALC-G270D cells (Twitcher mouse brain line with human GALC G270D), HMU-beta-Gal fluorescence, 48 h; series mostly up to 57.5 µM; activation: at the top concentration
Procedure, shortened: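 Mutant human GALC (G270D), stably expressed in a Twitcher mouse brain cell line lacking endogenous GALC, is measured in live-treated cells via 6-hexadecanoylamino-4-methylumbelliferyl-β-galactoside hydrolysis (0.1 mM final, pH 5.2) with fluorescent detection.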

activation, inactive:
Cc1ccc(-n2ccnc(NCCc3ccc(S(N)(=O)=O)cc3)c2=O)c(C)c1 -8.17%
Cc1oc(-c2ccc(C(=O)NCc3ccc(F)cc3)cc2)nc1CS(=O)c1ccccc1 (configuration not stated) -6.23%
CCOc1ccc(/C=C/c2nc(C#N)c(NC3CCCCC3)o2)cc1 -10.2%
COc1ccccc1OCCn1c(C(C)Oc2ccccc2)nc2ccccc21 (configuration not stated) -12.7%
COc1ccccc1-c1nnc(SCC(N)=O)o1 -6.59%
CC(C)c1ccc(NC(c2nnc(-c3ccccc3)o2)c2ccc(F)cc2Cl)cc1 (configuration not stated) -5.65%
CCN(CC)CCNC(=O)c1ccc(-c2nc(CS(=O)(=O)c3ccc(C)cc3)c(C)o2)cc1 -19.6%
CC(=O)c1cc2c(cc1N/C(=N/S(=O)(=O)c1ccccc1)c1ccc(Cl)cc1)OCO2 -7.74%
Cc1cc(C)cc(C(=O)Nc2c(C(=O)Nc3ccccc3F)oc3ccccc23)c1 -10.4%
COc1cccc2sc(N3CCN(C(=O)CS(=O)(=O)c4ccc(Cl)cc4)CC3)nc12 -18.7%
CC(C)N(C(=O)c1cc2c(Cl)nc3ccccc3c2s1)C1CCCCC1 -5.42%
COc1cccc(CNc2ncc(-c3ccc(Br)cc3)n2C)c1 -2.08%
Cc1onc(-c2ccc(Br)cc2)c1C(=O)Nc1ccc(Br)cc1F 2.65%
CCOC(=O)c1scc(-c2ccc(C)cc2)c1S(=O)(=O)Nc1cccc(CC)c1 -34.4%
COc1ccc(-n2c(SCC(=O)Nc3nnc(C)s3)nc3c([nH]c4ccccc43)c2=O)cc1 -20%
O=C(O)CC(NS(=O)(=O)c1ccc(Br)s1)c1ccccc1 (configuration not stated) -15.1%
CCOc1ccc(NC(=O)Cn2cc(C(=O)c3ccc(C)cc3)c(=O)c3cc4c(cc32)OCCO4)cc1 -8.49%
Nc1c(-c2nc(-c3ccccc3)cs2)c2ccccn2c1C(=O)c1ccc2c(c1)OCO2 -8.71%
O=C(NCCCN1CCN(c2ccccc2)CC1)c1nnc(Cc2ccc(F)cc2)o1 -15.2%
CCN1C(C(=O)c2ccccc2)=C(OC(=O)COc2ccccc2)c2ccccc2S1(=O)=O -1.1%
CC1=C(C(=O)Nc2cc(C)ccc2C)C2(CCCCCC2)OC1=O -9.96%
Cc1cc(C)c(S(=O)(=O)N2CCN(Cc3nc4ccc(C)cc4o3)CC2)c(C)c1 -21.3%
Cc1cccc(C(=O)Nc2cc3c(cc2N2CCOCC2)n(C)c(=O)n3C)c1 -11.7%
CCOC(=O)c1ccccc1Nc1cc(C)nc2nc(-c3ccco3)nn12 -11.8%
COc1cc2c(cc1OC)C(COc1ccc(F)cc1)N(C(=O)c1ccccc1F)CC2 (configuration not stated) -25.1%
Cc1cccc(-c2nnc(SCC(=O)N3CCCc4ccccc43)o2)c1 -9.44%
CSc1cccc(NC(=O)Cn2nc(C)c3sc4ccccc4c3c2=O)c1 -9.3%
CC(=O)c1ccc(C(=O)N(Cc2cccnc2)c2nc3c(Cl)cccc3s2)cc1 10.4%
CCOCCCNC(=O)Nc1cc(C(=O)NCc2ccc(C(C)C)cc2)ccc1N1CCCC1 -22.9%
CC(C)OCCCN(C)C1CCN(S(=O)(=O)c2csc(C(N)=O)c2)CC1 -17.9%
COc1ccc(-n2c(C)nc3cc(C(=O)NC4CCCC4)ccc32)cc1 -6.14%
Cc1cccc(CS(=O)(=O)c2ncc(Cl)c(C(=O)Nc3nc4ccc(F)cc4s3)n2)c1 -6.03%
Cn1nnnc1SCCNCc1ccccc1OCc1ccc(Cl)cc1Cl -16.8%
COC(=O)C(C)NC(=O)N1CCN(c2nnc(C)c3c(C)n(-c4ccc(Cl)cc4)nc23)CC1 (configuration not stated) -20.8%
Cc1cc(C)cc(NC(=O)C2CCN(c3cc(C)nc4c(-c5ccc(Cl)cc5)c(C)nn34)CC2)c1 -10.1%
Cc1ccc(S(=O)(=O)c2nnn3c2nc(NCc2cccs2)c2sccc23)cc1C -2.4%
CCCCCCCCCCCCCCCC(=O)NCCO -11.3%
CCOc1ccc(N(CC)S(=O)(=O)N2CCCC(C(=O)NCc3ccc(Cl)cc3)C2)cc1 (configuration not stated) -17.5%
CC(C)NC(=O)N1CCC(N2CCN(Cc3ccc(F)cc3)C(=O)C2=O)CC1 -11.2%
O=C(Cc1ccc(F)cc1)NCCc1csc(-c2cccc(F)c2)n1 -9.18%
Cc1ccc(C)c(NS(=O)(=O)c2ccc3c(c2)n(C)c(=O)n3C)c1 -11%
COc1ccc(-c2noc(Cn3c(=O)c4ccccc4n(CC(=O)Nc4cccc(C(F)(F)F)c4)c3=O)n2)cc1 -1.79%
CN1CCN(C2=Nc3cc(Cl)ccc3Nc3ccccc32)CC1 -8.95%
Cc1oc(-c2cccc(Br)c2)nc1Cn1c(=O)cc(-c2ccccc2)c2c(C)nn(C)c21 -5.25%
COc1ccc2c(c1)c1c(c(=O)n(Cc3ccccc3)c(=O)n1CC(=O)Nc1c(C)cccc1C)n2C -7.75%
Cc1ccc(S(=O)(=O)NCCc2sc3nc(-c4ccccc4)nn3c2C)cc1C 0.0997%
Cc1ccccc1-c1nc(CS(=O)(=O)CC(=O)Nc2cccc(C(F)(F)F)c2)c(C)o1 13.8%
O=C(c1cccc(Cl)c1)N(Cc1ccco1)Cc1ccccc1Cl -6.98%
CCc1nc2onc(C)c2c(=O)n1CC(=O)O -5.09%
CCn1c(SCC(=O)N2CCC(C)CC2)nnc1-c1ccccc1O -8.77%
CCCn1ccc2c(OCC(=O)Nc3ccccc3OCC)cccc2c1=O 9.26%
Cn1c(SCc2cccc(F)c2)nc2c([nH]c3ccccc32)c1=O -6.44%
O=C(NCC(c1cccnc1)N1CCOCC1)C(=O)Nc1ccc(F)cc1 (configuration not stated) -11.8%
COc1ccc(OC)c(CCNc2nccn(-c3ccc(C)c(C)c3)c2=O)c1 -4.87%
Cc1ccc(CNC(=O)CCC(=O)N2Cc3ccccc3Oc3ncccc32)cc1 -6.59%
COc1ccc(Cn2c(=O)[nH]c3cc(C(=O)N4CCN(c5ccccc5)CC4)ccc3c2=O)cc1 3.08%
COc1ccccc1NC(=O)C1=C(C)Nc2nc3ccccc3n2C1c1cccc(Br)c1 (configuration not stated) -9.74%
COc1ccc(N2CCN(Cc3cc(=O)oc4ccc(OC)cc34)CC2)cc1 -2.33%
CCc1ccccc1Nc1cc(C(=O)NCCc2ccccc2)c2ccccc2n1 -15.4%
CCCOc1ccc(Nc2cc(C)nc(C)n2)cc1 -19.3%
O=C(Cn1c(=O)n(-c2ccc(F)cc2)c(=O)c2sc3ccccc3c21)NC1CCCCC1 -1.84%
CCOC(=O)c1ccc2c(c1)N(Cc1cccc(C(F)(F)F)c1)C(=O)c1ccccc1S2(=O)=O -11.2%
COCCCNS(=O)(=O)c1ccc(N2CCCCS2(=O)=O)cc1 -8.35%
Cc1ccc(NC(=O)CN2C(=O)CSc3ccc(S(=O)(=O)N4CCCC4)cc32)c(C)c1 -8.13%
COc1ccc(C(=O)Oc2c(Sc3ccccc3)c(C)nn2-c2ccccc2)cc1OC -16.4%
COc1ccc(CCNC(=O)C2CCN(c3nc4ccccc4nc3C(F)(F)F)CC2)cc1OC -11.4%
O=C(Nc1ccc2nc(SCC(=O)N3CCCc4ccccc43)sc2c1)c1cccc(Cl)c1 -6.73%
COc1cccc(-c2nnc(-c3cc4cc(Cl)ccc4oc3=O)o2)c1 -12.7%
O=C1CCc2cc(S(=O)(=O)NCc3ccc(Cl)cc3)cc3c2N1CC3 -11.3%
CN(C)CCN1CCN(c2cccc(Cl)c2)C1=O -9.4%
COc1ccccc1NC(=O)c1oc2ccccc2c1NC(=O)C(C)C 1.22%
Cc1cccc(NC(=O)CSc2nnc3scc(-c4ccccc4)n23)c1 -14.3%
CCC1CCC(C(=O)NC(C(=O)NCCN(CC(C)C)CC(C)C)C(C)C)CC1 (configuration not stated) -9.48%
COc1ccccc1NC(=O)Cn1cnc2c(nc3n2CCCCC3)c1=O -18.5%
O=c1c(N2CCN(c3cccc(C(F)(F)F)c3)CC2)csc2ccccc12 -10.3%
CC1CCN(S(=O)(=O)c2ccc3c(c2)c(=O)c(C(=O)NCc2ccc(Cl)cc2)cn3C)CC1 -8.71%
CC(C)(C)c1ccc(CSc2nc3c(c(=O)[nH]2)CCCC3)cc1 -28.3%
O=C(Nc1ccc(Cl)c(C(F)(F)F)c1)C1CCCN(S(=O)(=O)c2cccc3cccnc23)C1 (configuration not stated) -6.18%
Cc1ccccc1CNC(=O)c1ccccc1NC(=O)c1nsc2ccccc12 12.8%
COc1cc(-c2noc(CSc3nc(-c4ccc(F)cc4)cc(=O)[nH]3)n2)cc(OC)c1OC -18.2%
CCOC(=O)CC(NC(=O)CCc1c(C)nc2c(-c3ccccc3)c(C)nn2c1C)c1ccc(C)cc1 (configuration not stated) 8.5%
COc1ccc(-c2cn3c(n2)sc2cc(C(=O)NCc4cccs4)ccc23)cc1 -11.9%
COc1ccc(-c2c3c(=O)n(C)c(=O)n(C)c3cn2-c2cccc(N)c2)cc1 -9.15%
Cc1ccc(CNC(=O)C2CCN(C(=O)c3ccc(-n4ccc5ccccc54)s3)CC2)cc1 -12.7%
Cc1ccc(-n2nnc(-c3nsc(NC(=O)c4ccccc4C)n3)c2C)cc1Cl -9.55%
O=C(Nc1ccc(F)cc1)N1CCN(c2ccc3nnc(-c4ccc(F)cc4)n3n2)CC1 -0.213%
CCOc1ccc(Nc2c(S(=O)(=O)c3ccc(Cl)cc3)cnc3ccc(OC)cc23)cc1 -2.42%
CCn1cc(C(=O)NCCc2ccc(Cl)cc2)c(=O)c2cc(S(=O)(=O)N3CCc4ccccc4C3)ccc21 -19.4%
COCCCNC(=O)c1[nH]c2cc(OC)ccc2c1Sc1ccc(C)cc1 -7.63%
COc1ccc(Cn2ccc3nc(C)c(C(=O)Nc4ccc(F)cc4)cc3c2=O)cc1 -8.2%
Fc1ccc(-c2nc(-c3cccs3)c(-c3cccs3)[nH]2)cc1 -6.48%
O=C(Nc1nnc(SCc2cc(=O)c3ccccc3[nH]2)s1)c1ccccc1 -9.8%
Cc1nn(-c2ccccc2)c2c1N(CC(=O)NCc1ccc(N(C)C)cc1)C(=O)CS2 -3.36%
Cc1c(NC(=O)Cc2ccc(F)cc2)cccc1-c1nc2cccnc2s1 -0.165%
Cc1cccc(NC(=O)CSc2nc3ccc(NC(=O)COc4ccc(Cl)cc4)cc3s2)c1 -14%
CCOC(=O)c1cc(-c2ccccc2)n(CCC(=O)Nc2ccc(C(F)(F)F)cc2)c1C 17.4%
O=C(NCCn1cc(SCc2cccc(F)c2)c2ccccc21)c1cccc(C(F)(F)F)c1 5.19%
